In all, about 52,000 compounds went through this assay and about 4,300 (8.3%) were called active. Cut-off read from the data, not from the text of the source: active = survival mostly below about 52% (no sharp cut-off); inactive = mostly above about 56%. The list shows a part of the results.
System: DeltatarO mutant
Assay: growth inhibition of S. aureus wild type versus tarO mutant, primary screen, teichoic acid synthesis inhibitors, RN4220, OD600 (AID 463173)
Conditions: OD600, 18 h, stronger effect = lower value, screened at 18.75 µg/mL (by protocol)

SMILES	survival
COc1ccc(-c2nnc(SCC(=O)NC3CCCCC3)nc2-c2ccc(OC)cc2)cc1	inactive: 89%
COCCn1c(C)cc(O)c(C(c2ccccc2)N2CCN(c3ccccc3)CC2)c1=O (stereo not given)	inactive: 49%
O=C(Cn1c(=O)n(Cc2ccc3c(c2)OCO3)c(=O)c2oc3ccccc3c21)Nc1ccccc1F	inactive: 65%
Cc1onc(-c2ccccc2Cl)c1C(=O)NC(C(=O)O)C(C)C (stereo not given)	inactive: 86%
CCN(C(=O)Cn1cnc2onc(-c3ccc(F)cc3)c2c1=O)c1ccc(OC)cc1	inactive: 83%
Cc1oc2ncn(CC(C)C)c(=O)c2c1C(=O)NC(C)c1ccccc1 (stereo not given)	inactive: 88%
CCOc1ccc(NC(=O)Cn2c(=O)c(CNc3ccc(CC)cc3)cc3cc4c(cc32)OCO4)cc1	active: 47%
CCN1CCN(c2ccc(N=Cc3ccc(N(C)C)cc3)cc2)CC1	inactive: 101%
Cc1ccc(CNc2ncnc3onc(-c4ccc(F)cc4)c23)cc1	inactive: 86%
Cc1cc(C)c2nc(NC(=O)c3ccc(S(=O)(=O)N4CCc5ccccc54)cc3)sc2c1	inactive: 83%
Cc1ccc(Cn2c(SCC(=O)C(C)(C)C)nc3ccsc3c2=O)cc1	inactive: 77%
O=C(O)CCCc1nc2ccccc2s1	inactive: 75%
CC1=Nc2cc(C(=O)NCCc3ccccc3)ccc2Sc2c(C)ccc(C)c21	inactive: 66%
Cc1cccn2c(=O)c3cc(C(=O)NCc4cccnc4)c(=N)n(CCCO)c3nc12	inactive: 82%
CC(C)(C)c1ccc(C(=O)NC2(C(F)(F)F)C(=O)Nc3c2c(=O)[nH]c(=O)n3-c2ccccc2)cc1 (stereo not given)	inactive: 88%
O=C(NCc1ccccc1)c1nc(S(=O)(=O)Cc2ccccc2)ncc1Cl	active: 18%
COC(=O)c1c(C)oc2ccc(N(C(=O)c3ccncc3)S(=O)(=O)c3c(C)cc(C)cc3C)cc12	inactive: 175%
Cc1sc2ncn(CC(=O)N3CCN(c4ccc(Cl)cc4)CC3)c(=O)c2c1S(=O)(=O)N1CCN(c2ncccn2)CC1	inactive: 81%
CC1CC(NC(=O)c2ncn[nH]2)CC(C)(C)C1 (stereo not given)	inactive: 92%
CC1=C(C(N)=O)C(c2ccc(C)o2)C(C(N)=O)=C(C)N1	inactive: 82%
COC(=O)c1cc2occc2n1Cc1nc(-c2cccc(Cl)c2)oc1C	inactive: 64%
COc1ccc(NC(=O)Cn2c(=O)n(-c3ccc(C)cc3)c(=O)c3c2cnn3C)cc1	inactive: 147%

SMILES	survival
O=C(Nc1ccc2nc(SCC(=O)N3CCCC3)sc2c1)c1cccc(Cl)c1	inactive: 52%
CCOC(=O)c1c(C)[nH]c(C)c1S(=O)(=O)N(C)CC(=O)Nc1ccc(C)c(N(C)C)c1	inactive: 101%
CCOC(=O)c1cc2c(=O)n3ccccc3nc2n(Cc2ccco2)c1=NC(=O)c1c(F)cccc1Cl	inactive: 42%
CC(C)CCNC(=O)C1CCN(c2nc3ccc(Cl)cc3[nH]2)CC1	inactive: 92%
COc1ccc(C)cc1NC(=O)c1ccc(=O)n(Cc2ccccc2)c1	inactive: 97%
COc1ccc(-c2nsc(NC(=O)C(C)Oc3ccc(Cl)c(C)c3)n2)cc1 (stereo not given)	active: 45%
COc1cccc(-n2c(=O)c3c(C)c(C)sc3n(CC(=O)NCc3ccccc3)c2=O)c1	inactive: 102%
COc1ccccc1NC(=O)C1=C(C)Nc2nnnn2C1c1cc(Br)c(O)c(OC)c1 (stereo not given)	active: 55%
Cc1ccc(C)c(Cn2c(=O)cc(C)c3c(C)nn(-c4cccc(F)c4)c32)c1	inactive: 77%
COc1ccc(/C=C/c2nc(C#N)c(NCCc3ccccc3)o2)cc1OC	inactive: 91%
COc1ccc(NC(=O)c2c(C)oc3ccc(O)c(CN4CCCCCC4)c23)cc1Cl	inactive: 94%
COc1ccc(OC)c(CCNC(=O)c2cnn(-c3ccccc3Cl)c2C2CCN(C(=O)OC(C)(C)C)CC2)c1	inactive: 88%
Cc1cccc(C(=O)Nc2c(C(=O)NCc3ccc(Cl)cc3)sc3nc(C)cc(C)c23)c1	inactive: 55%
COc1ccc(Nc2nc3c(S(=O)(=O)c4ccccc4)nnn3c3ccsc23)cc1OC	inactive: 98%
COc1ccc(CCNC(=O)c2cn(C)c3ccc(S(=O)(=O)N(C)C4CCCCC4)cc3c2=O)cc1OC	inactive: 81%
CC(=O)N1c2ccc(S(=O)(=O)NCC3CCC(C(=O)Nc4cccc(C)c4C)CC3)cc2CC1C (stereo not given)	inactive: 83%
CCOCCCNC(=O)C(c1ccc(OC)cc1)N(Cc1ccc2c(c1)OCO2)C(=O)c1ccccc1O (stereo not given)	inactive: 62%
Cc1ccccc1C(=O)Nc1c(C)nc(Nc2ccccc2)nc1Nc1ccccc1	inactive: 79%
Cc1ccc(NC(=O)Cn2nc(C)n3cccc3c2=O)c(C)c1	inactive: 96%
Cc1cccc(N2CCN(C(=O)c3cc4c(=O)n(C)c5ccccc5c4s3)CC2C)c1 (stereo not given)	inactive: 61%
CCCN(CCC)CCNC(=O)c1ccc2c(c1)NC(=O)C(CS(=O)(=O)Cc1cccc(Br)c1)N2 (stereo not given)	inactive: 124%
Cc1sc2ncn(CC(=O)N3CCN(c4cccc(Cl)c4)CC3)c(=O)c2c1S(=O)(=O)N1CCN(c2ncccn2)CC1	inactive: 63%

SMILES	survival
COc1ccccc1N1CCN(S(=O)(=O)CCNC(=O)COc2ccc(C(C)C)cc2)CC1	inactive: 86%
CCOc1ccccc1N1CC(c2nc3ccccc3n2Cc2c(C)cc(C)cc2C)CC1=O (stereo not given)	inactive: 92%
COc1ccc(NC(=O)c2ccc3c(SCC(=O)O)c4c(nc3c2)CCC4)c(OC)c1	inactive: 68%
COc1ccc(-c2nc(C)c(CCNC(=O)C(=O)Nc3cc(C)cc(C)c3)s2)cc1OC	inactive: 80%
COc1ccc(-c2nc(SCc3cc(=O)c4cc(C)ccc4[nH]3)n[nH]2)cc1	inactive: 80%
CC1(C)C=Cc2c(nc3ccccc3c2N)C1	inactive: 65%
CC(C)(C)c1nc(CN2CCOCC2)cc(CN2CCOCC2)c1O	inactive: 79%
Cc1ccc(C)c(Cn2nc(-c3cc(C)ccc3C)ccc2=O)c1	inactive: 44%
Cc1ccccc1OC(=O)CSc1nnc(-c2cccs2)o1	inactive: 61%
CCOC(=O)c1c(S(=O)(=O)N2CCCC(C(=O)N3CCN(c4ccccc4)CC3)C2)c(C)n(C)c1C (stereo not given)	inactive: 77%
CCOc1ccc(S(=O)(=O)NCC(c2ccco2)S(=O)(=O)c2ccc(F)cc2)cc1 (stereo not given)	inactive: 92%
COc1cccc(N2CC(NC(=O)c3ccc(S(=O)(=O)N4CCCCC4)cc3)CC2=O)c1 (stereo not given)	inactive: 92%
COc1ccc(-c2nc3ccccc3o2)cc1NC(=O)COc1ccc(C(C)(C)C)cc1	active: 4%
O=[N+]([O-])c1ccc(C(c2sc3nc(-c4ccco4)nn3c2O)N2CCN(c3cccc(Cl)c3)CC2)cc1 (stereo not given)	active: 47%
CCCCOC(=O)c1cccc(NC(=O)c2cc3ccccc3o2)c1	active: 1%
CCOc1ccc(C(=O)Nc2cccc(OCc3cc(=O)n4cc(C)sc4n3)c2)cc1	inactive: 79%
O=C(Nc1ccc(Cl)cc1F)c1cc(S(=O)(=O)NCc2ccc3c(c2)OCO3)ccc1F	inactive: 77%
CCc1ccc2oc(C(=O)Nc3sc4c(c3C(=O)NC)CCCC4)cc(=O)c2c1	inactive: 55%
COc1cccc(CNCCSc2nnnn2C)c1OCc1ccccc1F	inactive: 50%
CN(C)CCn1c2c(c(SCC(=O)Nc3ccc(F)cc3F)nc1=O)CCC2	inactive: 71%
O=C(NCCc1ccccc1)c1ccc(CSc2nc3ccncc3n2Cc2ccc(F)cc2)cc1	inactive: 69%
CCCCn1cc(S(=O)(=O)c2cccc(C)c2)c(=O)c2cc(F)c(N3CCOCC3)cc21	inactive: 83%

SMILES	survival
O=C(CN1C(=O)COc2ccc(S(=O)(=O)N3CCOCC3)cc21)N1CCN(c2ccc(F)cc2)CC1	inactive: 99%
CC(Sc1nc(=O)cc(N)n1CCc1ccccc1)C(=O)Nc1ccccc1C#N (stereo not given)	inactive: 80%
COc1ccc(OC)c(NC(=O)CN2C(=O)CCc3cc(S(=O)(=O)N4CCCCC4)ccc32)c1	active: 32%
O=C(NC1CCCCC1)c1ccc2c(c1)N(Cc1ccc(Cl)cc1)C(=O)c1ccccc1S2(=O)=O	inactive: 84%
CCc1cccc(NC(=O)Cn2nc(-c3cc(C)ccc3C)ccc2=O)c1	active: 34%
Cc1nnc(NCc2ccccc2)c2c1nnn2Cc1ccc(F)cc1	inactive: 99%
Cc1ccc(CN2C(=O)C3(c4ccccc42)N(c2cccc(C(F)(F)F)c2)C(=O)CS3(=O)=O)cc1 (stereo not given)	inactive: 77%
COc1ccccc1NC(=O)CSc1oc(-c2cccs2)nc1S(=O)(=O)c1ccccc1	inactive: 54%
O=c1cc(CSc2n[nH]c(-c3ccccc3)n2)[nH]c2ccccc12	inactive: 129%
CC(Oc1ccccc1Cl)C(=O)N1CCN(CCc2ccccn2)CC1 (stereo not given)	inactive: 108%
COc1cc(NC(=O)c2cc3c(=O)n(Cc4cccs4)ccc3nc2C)cc(OC)c1OC	active: 0%
CCOC(=O)CN1CCN(c2ccc(F)cc2)CC1	inactive: 76%
CCN1CCN(c2c(S(=O)(=O)c3ccc(C)c(C)c3)cnc3ccc(F)cc23)CC1	inactive: 67%
O=c1c2cnn(-c3ccc(Cl)cc3)c2ncn1Cc1cccc(C(F)(F)F)c1	inactive: 106%
Cc1nn(CC(=O)Nc2ccccc2F)c(=O)c2c(C)n(-c3ccc(Cl)cc3)nc12	inactive: 102%
CCOc1ccc(-c2csc(/C(C#N)=C/c3ccc(Br)cc3)n2)cc1	inactive: 55%
CCOc1ccc(C(NC(=O)c2ccco2)c2ccc(OC)c(OC)c2)cc1 (stereo not given)	inactive: 75%
Cc1ccc(-c2ccc(C#N)c(=O)n2CC(=O)N2CCC(C(N)=O)CC2)cc1	inactive: 88%
COc1cccc(N2CCN(C(=O)c3cnn(-c4ccc(C)cc4C)c3C3CCN(C(=O)OC(C)(C)C)CC3)CC2)c1	inactive: 101%
